RUNX1 binding intensity data for 125 sequences are collected here from the supplement of paper PMC10681739.

Whole data set: some 4,000 sequences, median “arbitrary fluorescence units” near 830, cut for the highest 2% near 6,500. The list lacks most of the strong results.
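Note: Full-length recombinant human RUNX1 bound to double-stranded DNA microarray spots, detected with an Alexa488-labelled secondary antibody after the anti-RUNX1 primary, read as scanned spot fluorescence.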

Sequence of UniProt Q01196 (Q01196 whole entry): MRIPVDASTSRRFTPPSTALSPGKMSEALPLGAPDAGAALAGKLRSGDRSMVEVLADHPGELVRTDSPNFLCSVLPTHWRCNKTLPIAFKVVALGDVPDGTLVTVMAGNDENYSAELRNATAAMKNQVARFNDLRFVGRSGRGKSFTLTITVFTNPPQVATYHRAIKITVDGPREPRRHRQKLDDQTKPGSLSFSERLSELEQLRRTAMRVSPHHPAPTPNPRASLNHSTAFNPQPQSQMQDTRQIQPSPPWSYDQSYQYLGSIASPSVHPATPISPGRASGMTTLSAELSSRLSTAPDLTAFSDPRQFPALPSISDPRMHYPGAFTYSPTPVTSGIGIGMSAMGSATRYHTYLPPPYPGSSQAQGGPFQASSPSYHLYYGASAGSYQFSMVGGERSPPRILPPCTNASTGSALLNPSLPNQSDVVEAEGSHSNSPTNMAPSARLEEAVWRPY

The experiment deals with RUNX1 (UniProt Q01196). Description: RUNX1 binding intensity (PBM fluorescence), RUNX1 alone (arbitrary fluorescence units); higher = stronger binding. The following applies: RUNX1 concentration 2 nM; ETS1 concentration 0 nM. The protocol:
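gcPBM on 36-bp genomic-derived probes (partner site mutated) containing one RUNX1 site and no ETS1 site. Recombinant human RUNX1 (2 nM) was incubated alone or with ETS1 (25 nM) and detected by anti-RUNX1 antibody fluorescence. Values are medians over 4 replicate spots (not normalised). The probes sit in constant array flanks that are not printed.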
Consider AGGGACGCTGCGGCTGAAGTGGACCGAACTGCCAAG, for which the RUNX1 binding intensity was 735. The value for TGGCTGCGGCTGCCGGGGCAGCGCCTCCTCTAGCAA was 663. The value for GGCCCACCTCCTTATGACTCAGCAGATGCGGCTGTC was 829.

GACTGCCTGTTGAAGATTGGCCTCTGCGGTACCACG came in with an RUNX1 binding intensity of 2350. For TTGCGTCACGTTCGGCCTGCGAGTTACCGCCCACTC the value was 928. For the sequence TGGACACCGGGAATCTGAGCGGCCTGCGGGTCCAGA, the RUNX1 binding intensity was 716.

CACTCCGCCCCCGCAGTCCCCGCGGCTTCGGCCACG had an RUNX1 binding intensity of 1020. The value for GCGCAAGGGAGGACTGCAAGGAGGCCGCAGGTTAAA was 717; that for ACCTGCACCTCCTCCTCCCTAGACCGCACCCTTCTC was 2650. The sequence GGGAGCGGCGCGGTGAGAGAGAGGCGTATGAAGGGG displayed an RUNX1 binding intensity of 735.

AGCGTATGAACCACAGGAACTTTCGGGTTTTAAAGA had an RUNX1 binding intensity of 1010. CCCACCGCGGCCCACGCCGAGCGTGGTGGAACAGCT came in with an RUNX1 binding intensity of 893. In turn, CATGTGACCCACACACCCTACTTTACTCGGAGACAG came in with an RUNX1 binding intensity of 1180. In turn, TTTTGTGGTTCTAGAGGGGCAGGCTCCCTGATTGCA returned an RUNX1 binding intensity of 1510.

The sequence AGCAACAACAAAGTAAGTGGCGGCCGCAGGGGGAGG displayed an RUNX1 binding intensity of 742. The value for CTTTATGACAGAAGCCGCACCCGGAATTGAAACCAG was 809; that for TAAACCCTGCTTCATGTCCCTGCGCCCCACAAGGAG was 843. The value for GGACCCGCACCCTGGTCCCGCGGGACGGACGGAGGT was 797; that for AAGGAGGCCACAAGGCCCAACGCAGCAAGTGAAACC was 701. For TGGGTGCTGGATTCGGTGAGTGTGGTTCTCATGATG, the RUNX1 binding intensity was 724. For CTGAAACATGAAACAGACAAAGCCACAAGGTTCGCA the value was 816; for CACCTCCGTCTCACCTGACCCAGAGGCACCGCGAGC, 977; for AGTGCTGTGGTTTGACTTTGTTTTTACTGTAGCCAG, 1880. In the case of GACCCGGCCACACCACAAGAAAAGGACGTTCCCGTA, the RUNX1 binding intensity amounted to 1150. GTTTTAGAGCGGTCAGAGGGGCGGCTTCAGGTTTAG: the RUNX1 binding intensity stood at 808. The value for CCAGGCGTTGCCGGGTTCCCGCGGTCCCGTCCCCCA was 781. In turn, GCAGCAAGCAGGTGGCAGGGAGTGGACCCACAGCAT displayed an RUNX1 binding intensity of 683. The value for ACTTACCTCCCGACGTCACAGCCTCCGACACCACAG was 1090; that for AGAGGCAGTTCAGGGGTGGGAACCGCGCGGAGCTTT was 712; that for CACTCCCCGTGGGAGGATCTTGGGCTGCGGCTAGGG was 768. For CGACTGCGGCAGTCCGCGGAATTCTTGTATCCAGTC the value was 725; for GAGAGGAGACCTGACCACGACAGGAATTGACTTACA, 676; for CTCCCGCCTTGCTCCCGGTTTGCGGCCATTGACCGT, 929. Turning to GAGACTTAACCCCCACAGCACCGGGAATCAGCCAAC, the RUNX1 binding intensity came to 792. For TCTTTTTATTTGCTGTGCAGTCTCGCCCACAGCACT the value was 908. The sequence AGTCTCGTTTACTGTGCGCTGTGGCCACCTGGCAGC returned an RUNX1 binding intensity of 788.

For the sequence ACGGTGCGATTCCCCAACTACACCGCACGTCACGGA, the RUNX1 binding intensity amounted to 950.

CTGGGCCGCAGTTCAGGTGGCTGGCGCAAACTGGAA: the RUNX1 binding intensity turned out to be 674. For CCAGCGTTTGCGCACCCTCTCCGATTAGCGGTCCCA the value was 813. Turning to CACCCGCCCCCCGAAAGTGCCGGTGGTTGGGCTCCG, the RUNX1 binding intensity stood at 789. For AGCTGCCGCCCGCCCACAGAGCATCTGGCCACATTT the value was 962; for TTACAGGGGCCGGGAGTGGCCTGCGGGCGGAGAAGT, 738.

GGCCGCGCTGCGGTGTGTACAGATTGCCGCGGCGCC showed an RUNX1 binding intensity of 873. CGTCCCTGAGCAAGCTGCTGCGGCTTTCTGGGCTAG registered an RUNX1 binding intensity of 780.

CCTCGGTTCGGAGACGGCGAAAGCAAACCGCAAGGA registered an RUNX1 binding intensity of 2850. On to ATACCGGCGCATTCGGATTTTGAAGCCGCAGTGGAC, for which the RUNX1 binding intensity was 742. The value for GAATCACCAGTTCCTCACTCCCACACAACCATGTTG was 1030; that for GTGACCCTGCGGGCCAGTCACCTCCTCTGAGCCTCA was 774; that for TTCATCTAGTTCCCGCCACACCCACAGAGAAGCCCA was 1220. For ACAACTCCCACAAGGCATTGGGGGGAACACCACGGT the value was 818.

Consider TGGAACCGCGACAGGAGACTCGCGTGTTCAGGGGAG, for which the RUNX1 binding intensity was 706.

Sequence AACACACAACCACAGACTTATTGCCTGTTTCAGATT displayed an RUNX1 binding intensity of 1510. For GCCATGGCCACTTGCTGCTTGTAACCACAGCCCAGA the value was 821; for ACAGTACACCCACACCTAGCTTTACTGTCTGCAGAG, 1040. For AGCTGCAGCAGATGGCGGACGACCTCAACGCACAGT the value was 674; for ACGTGCACCGGCGGTTTGCGCGATTCCAGCGTTGCA, 746. The value for GAGACTCAAAGCCACACCTTCCCACTTGCTGCAGCC was 913. Take CCTCCCCCTGCGGCCGCCACTTACTTTGTTGTTGCT: the RUNX1 binding intensity was 1230.

Sequence CAACATGGTTGTGTGGGAGTGAGGAACTGGTGATTC yielded an RUNX1 binding intensity of 748.

As for CATGATAGTGGTTGGCCAGTCAATGAGGAGACGTAC, the RUNX1 binding intensity is 679. The value for GGAGCTACCACAGGCAGACTAACTGCCTGCTAAGCA was 712; that for TACATAGGCGAAAGTGGCCTGCGGGCGCCGGAGTTG was 673; that for GCATGAAGACTAACACAAAACCATCAAACCACTCTG was 917.

Sequence CAGCCACCGCACCTCCTCCTCAGCTTGCTCTGGTGC yielded an RUNX1 binding intensity of 1050. The value for CTCACACCTTACCGCGAGCCCGGGGGAGGCTGACGT was 917; that for AGCGGCTGCGGCCGGGCCGGGAGGCTGTGTGTGTGC was 794; that for GGGGGAATCTTGCTGAGGTGAAATAGACCGCTGTGC was 769. The value for GCGAGACGCGGCAGAGGCTTGCGGTTGACCAAAGAA was 3500. For CATGATGGAAACCACCACCAGCACTTTCGGCCCTGG the value was 874.

Turning to AGAACAGCAGCAAATAAATACCCACCTCAGGACTGC, the RUNX1 binding intensity amounted to 778. TGCTGCACCGCGACCTCAGCTACTGCCTGCTCAGGT registered an RUNX1 binding intensity of 739. The value for GGGGTCAGCAAATGGGTGTGCCGCGGGTAAGGCGCT was 682. In turn, CTCTGCAGACAGTAAAGCTAGGTGTGGGTGTACTGT returned an RUNX1 binding intensity of 768. The value for ATATTTTTGATTCCTCCTGTGGTGGCACCTAGCAGC was 1020; that for ACCAGCTGCGGCTGGGTGCAGCTGAAGGTGTCTACG was 722. For ACATGAAGAGATATTATATCTCCCTGCGGTTGGTTT the value was 965; for CCTCTTATACCACACTGTGGGAATCAGCAAGGGTGC, 948. In the case of TGAGTTTTGTCTCCGATTCACCACAGAAGATACTTT, the RUNX1 binding intensity was 930. The value for TGCAGCTATGGCTGGAAGCCTGTGGGTGTGGGAGGA was 691. On to GTCGTCCCGAAAACCGGGATGCGGTTATCAGAGCGA, for which the RUNX1 binding intensity is 1350. The value for AGCGGCCGAAGGAATTGACGTTTGCGGCAGTAAGGC was 1230; that for TATCAGCCTCCGACGTGCCCCGCGGTATCTGGACTA was 837. For the sequence GGTTTTGCGCCCACAGCCGCCGAAAGTGGCTCCGTG, the RUNX1 binding intensity was found to be 770. The value for TCCCTCCTTGCGCTCTGGTTTTGTGGTTGCTTGCTG was 1120. For AGACAAAGTGGTTGTAAGCCACCTCCTCCACACCCT the value was 826; for TTCAGGCGGTAAAGAACAGACCTGCAGGAGGAGATA, 723; for TGCGATGCCGCAGTGGCTCAGTGCTCCCTGGCCGAG, 673. For TACAGCCAGGCAATGGGGAGGGTGCTGCGGGCGGCA the value was 729; for CCCGCGGTGCTCGCCGCTGAGAGCTTTCGGGCCACG, 720. Consider AAGCACTTGTGGTTGGCACCAGCTTTTCATGTGCTC, for which the RUNX1 binding intensity came to 1120. The value for TGGGCACGGGAGCAAGAGGCTGGGTGGTAAACAGGA was 743; that for GCGCAGCCCGTCTCCCCTCTTGGCGGTTGCGAACTT was 847.

For the sequence CTCAAGACCGCTTACGGGAGCCTCTCGGCTTACGTC, the RUNX1 binding intensity was determined as 735.

Consider AGCTAAACCCAGTGCCGGTGCTGTGGGGAGCTCAGA, for which the RUNX1 binding intensity is 711.

In turn, AGTTACAGAACCACACTGGGGCCACCTCCTCTCCAG registered an RUNX1 binding intensity of 899.

Turning to GACCTGGGTTTCATGTCTGTACATCGCGGTTCCTAC, the RUNX1 binding intensity turned out to be 933. The value for AGCAAAAAGTTCCAGGGAAGCCGAGACCGCGACCTT was 732. With GGCGGGCCCTCCCGCAGGCCTTCATGTTTATGCGTC, the RUNX1 binding intensity worked out at 755. For ATTTACGTTTCAAACCACCCACTTCCAGTTTTTCAG the value was 1270.

In turn, GGAAAGGCAGCGGTGGCAGAGGCTGTGCTGGGGGAG showed an RUNX1 binding intensity of 701. For CGGGGCATGTCGGACGCTGTGGTCCTGAAGGCCTGG the value was 684; for TGTAATTTGAGGTTAGCACAACACAGGCAGTCCTGC, 938. The value for ACGTGACCGCGTGGGCGCAGTCCCAGACAGTAAACG was 869; that for TGCCACATGCTGCCCCTCCCCAGGTCTAACCACCAA was 1090.

The sequence AGTAGAGGAGGGAGTTAAATGTGGTTTTCTGGGTGG yielded an RUNX1 binding intensity of 845. The value for GCAGAAGGATTTGCTGTTTCAGGCAACCACAGCGAC was 767; that for AACACCCTGTGTAAAGAGAATTGAATGTGGTTTTCT was 771.

Turning to TGTGTCAAGCCGCAGGCAGCGATTCTGGACTCTGGG, the RUNX1 binding intensity came out at 777.

Regarding GCATGGCGGTTCTTGGCGTGCGAACCCCTTCGGCCC, the RUNX1 binding intensity worked out at 808.

The sequence CCGGGACATGAAGAGGCTGGGGACCGCGGCGAAGGT returned an RUNX1 binding intensity of 760. For CTAAGAATCATCGTGTGTAACAACACCCACAGTTAG the value was 783; for AAAAACTACATTGCCCATGAGCACCCACAGGCGTGC, 795. For GGCTACCGGCACCCGCAGTGTCCGGCAACGCAGTCC the value was 685. For CACCCGAACTGAAACACCTGCGGCTGAGGGGAGGGG the value was 1030. Sequence GCATGCGGCTTGCTCGGTACTCAGCTGACTTGCTGT registered an RUNX1 binding intensity of 773. AAGCCCACAGCCCGGCCCCGGCCCCCGTATGTGGGG showed an RUNX1 binding intensity of 741.

On to CGGGACTGCCTGTCTTCCCTGTTGCGGAGCTCTGAA, for which the RUNX1 binding intensity is 737. For GGGGCGGTTACAGAACGGGTAACTCAGAATGATTCA the value was 856.

Sequence GGCGTTGTGGGCCGCGGCGCGATTCCCCGGCTCCGT yielded an RUNX1 binding intensity of 709. For TCCGCGCGGTCGGCCGCGTTGTAGGGGACGGAGGTG the value was 770. The sequence TGATTAGGAAACCACAGACTACCCGGGAATCAACTT showed an RUNX1 binding intensity of 2710. The value for CAGGAACCGTAAGCCACAGGCCTTCATGCCCAGCCA was 803. The value for TCTGAGATAACCGCTTGGTTCCAGTGTCCCGTTTTG was 859; that for CGGCAGCTGCACCGCAGGGACATCTCCCGCGAGAGC was 736.

In the case of CTCCGCGCGGCCGCAGAGACTCCTGGGAATTGTGGA, the RUNX1 binding intensity came to 769.
